# Laboratory results: PubChem BioAssay AID504832 (National Center for Advancing Translational Sciences (NCATS), 2011)
# Screen size: about 310,000 compounds; about 18,000 (5.8%) were called active. Inconclusive results, whose numbers are uncertain, are shown with a selection of clear calls. Calls come from the whole dose curve; as a rule, active = well fitted inhibition curve with a large enough effect; inconclusive = small, poorly fitted or top-dose-only effect, or another doubt; inactive = no such curve, though single readings can be large or run the other way. No potency is given beside an inconclusive call; the fits are too rough.
# Test: Primary qHTS for delayed death inhibitors of the malarial parasite plastid, 48 hour incubation
# Settings: P. falciparum luciferase growth in erythrocytes; series mostly up to 28.7 µM
# Summary of the method: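 Erythrocytes infected with P. falciparum carrying an integrated firefly luciferase reporter (2% hematocrit, 0.1% parasitemia final) were exposed to compounds in RPMI 1640 with 0.5% Albumax at 37 C, 5% CO2. Growth inhibition was scored as reduced luminescence.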
# Potency is the fitted concentration of half-maximal effect; tags give direction and shape of the fitted curve.
row,SMILES,Potency
1,COc1cc(C(=O)Nc2nc3ccccc3[nH]2)cc(OC)c1OC,"inconclusive [inhibitor, single point]"
2,Cc1ccc(S(=O)(=O)N(Cc2cc3ccc(C)cc3[nH]c2=O)c2ccccc2)cc1,"inconclusive [inhibitor, single point]"
3,COC(=O)c1cc(C(=O)OCC(=O)c2ccc[nH]2)cc([N+](=O)[O-])c1,inactive
4,CCn1c2ccc(OC)cc2c2nc3ccccc3nc21,"inconclusive [inhibitor, single point]"
5,CCOc1ccc(NC(=O)CSc2nc3nc4c(cc3c(=O)n2CC)COC(C)(C)C4)cc1,"inconclusive [inhibitor, partial curve, poor fit]"
6,COc1cc(NC(=O)c2ccc3c(=O)n(Cc4ccco4)c(=S)[nH]c3c2)cc(OC)c1OC,"inconclusive [inhibitor, partial curve, poor fit]"
7,Cc1ccc(NC(=O)CN2CCN(S(=O)(=O)c3cccs3)CC2)cc1S(=O)(=O)N(C)C,"inconclusive [inhibitor, partial curve, poor fit]"
8,COc1cc2ncnc(NCc3ccco3)c2cc1OC,"inconclusive [inhibitor, single point]"
9,Cc1noc(C)c1CSCC(=O)NCCN1C(=O)S/C(=C\c2ccccc2F)C1=O,"inconclusive [inhibitor, single point]"
10,Cc1ccc2c(c1)CCCN2C(=O)c1ccncc1,inactive
11,Cc1ccc2nc(-c3ccccn3)c(NC3CCCC3)n2c1,inactive
12,CCOC(=O)CCC(=O)NCc1ccc2c(c1)cc(C)n2C,"inconclusive [inhibitor, single point]"
13,Cc1sc(Cc2nc(O)cs2)nc1-c1ccccc1,"inconclusive [inhibitor, partial curve, poor fit]"
14,O=C(O)c1ccc(Nc2nc(-c3cccnc3)cs2)cc1,inactive
15,COc1ccc(NS(=O)(=O)c2csc(C(N)=O)c2)cc1OC,"inconclusive [inhibitor, full curve, poor fit]"
16,O=C(O)C(C(O)c1ccc([N+](=O)[O-])cc1)[n+]1ccccc1 (stereo not given),"inconclusive [inhibitor, partial curve, poor fit]"
17,CCCc1cc(C(=O)N2CCCC(C(=O)c3cc(C)c(OC)c(C)c3)C2)n(C)n1 (stereo not given),"inconclusive [inhibitor, single point]"
18,COc1ccc(C(=O)Nc2ccc3c(c2)CCCN3C(=O)c2cccs2)c(OC)c1,"inconclusive [inhibitor, single point]"
19,Cc1ccc(Cl)c2c1NC(=O)C2(O)CC(=O)c1ccccc1O (stereo not given),inactive
20,Cc1cc(OCC(=O)Nc2cccc(S(=O)(=O)N3CCCC3)c2)ccc1Cl,inactive

row,SMILES,Potency
1,COc1ccc(S(=O)(=O)N2CCCC2CNC(=O)C(=O)NC2CC2)cc1 (stereo not given),"inconclusive [inhibitor, single point]"
2,Cc1ccccc1Cc1c(C)nc2c(C(=O)NCc3ccco3)cnn2c1C,"inconclusive [inhibitor, single point]"
3,COc1cc(/C=N/NC(=O)c2ccc(CSc3nncn3C)cc2)cc(OC)c1O,"inconclusive [inhibitor, single point]"
4,COC(=O)c1ccc(NC(=O)CC2C(=O)N(C)C(=S)N2Cc2ccc(S(N)(=O)=O)cc2)cc1 (stereo not given),"inconclusive [inhibitor, single point]"
5,O=C(CSc1nc2ccccc2c(=O)n1Cc1ccco1)N1CCCC1,"inconclusive [inhibitor, partial curve]"
6,CCOc1ccc(S(=O)(=O)N2CCC(C(=O)OC(C)C(=O)N(C)C3CCCCC3)CC2)cc1 (stereo not given),"inconclusive [inhibitor, partial curve]"
7,CC(C)OC(=O)CSc1nnc(Cc2ccccc2)n1Cc1ccco1,"inconclusive [inhibitor, single point]"
8,CN1CCN(c2ccccc2NC(=O)c2ccc(-c3cccc(Cl)c3)o2)CC1,"inconclusive [inhibitor, partial curve]"
9,Cc1ccc(NC(=O)Cn2cnc3sc(C(=O)NCCN(C)C)c(C)c3c2=O)cc1Cl,"inconclusive [inhibitor, single point]"
10,CC(C)CN(C(=O)COc1ccc(Br)cc1C=O)C1CCS(=O)(=O)C1 (stereo not given),"inconclusive [inhibitor, single point]"
11,CCOC(=O)c1c(/N=C/c2cccc(C)c2O)sc2c1CCN(C)C2,"inconclusive [inhibitor, partial curve, poor fit]"
12,O=C(Nc1ccc(N2CCN(C(=O)c3ccccc3)CC2)cc1)c1ccc2c(c1)OCO2,"inconclusive [inhibitor, single point]"
13,COc1cccc(C(=O)COc2ccc(NC(=O)c3cccs3)cc2)c1,active: 11.7 µM
14,Cc1cc(C)n2nc(C(=O)N3CCN(c4ccc([N+](=O)[O-])cc4)CC3)nc2n1,"inconclusive [inhibitor, full curve, poor fit]"
15,N#Cc1ccccc1NC(=O)c1ccccc1OCC(=O)NCc1ccco1,"inconclusive [inhibitor, single point]"
16,CS(=O)(=O)Nc1cccc(C2=NN(C(=O)c3ccccc3)C(c3cccs3)C2)c1 (stereo not given),active: 13.1 µM
17,CCN(c1ccccc1)S(=O)(=O)c1ccc(Cl)c(NC(=O)Nc2ccc(Cl)cc2C#N)c1,"inconclusive [inhibitor, single point]"
18,CC(C)=Cc1oc2ccc([N+](=O)[O-])cc2c1N1CCOCC1,"inconclusive [inhibitor, full curve, poor fit]"
19,COc1cccc(C2C(C#N)=C(N)OC(C(C)(C)C)=C2C#N)c1 (stereo not given),inactive
20,CCOc1cc(C(c2c(C)[nH][nH]c2=O)c2c(C)[nH][nH]c2=O)ccc1O,"inconclusive [inhibitor, single point]"
